Measurements reported in PubChem BioAssay AID1347165 (National Center for Advancing Translational Sciences (NCATS), 2019).
Screen size: about 220,000 compounds; about 5,700 (2.6%) were called active. Inconclusive means that the source gave no clear call. Such entries were picked first, then a sample of the others. Calls come from the whole dose curve; as a rule, active = well fitted inhibition curve with a large enough effect; inconclusive = small, poorly fitted or top-dose-only effect; inactive = no such curve, though single readings can be large or run the other way. Where the call is inconclusive, the potency comes from a doubtful curve fit.

Target: Lysine-specific demethylase 5B (Homo sapiens) (UniProt Q9UGL1)
Test: Primary screen for KDM5B Histone Demethylases FDH-coupled qHTS; note: nearly all actives have a fitted effect of over 70% in size; for activity change, negative = inhibition: 0% is about no effect
Details: FDH-coupled NADH fluorescence (FDH is formaldehyde dehydrogenase); activity change, negative = inhibition: at 57.7 µM (top of the series) unless noted
Procedure, shortened: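 KDM5BΔAP (200 nM final) in 50 mM HEPES pH 7.5, 0.01% Tween-20 was preincubated 10 min at RT with compound over a concentration range. Substrate mix (H3K4me3 12.5 µM, α-KG 25 µM, Fe²⁺, ascorbate, NAD⁺, FDH) was added, and NADH fluorescence change over 30 min gave dose-response curves.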
Potency is the fitted concentration of half-maximal effect; tags give direction and shape of the fitted curve.

Sequence of UniProt Q9UGL1 (Q9UGL1 whole entry, looked up): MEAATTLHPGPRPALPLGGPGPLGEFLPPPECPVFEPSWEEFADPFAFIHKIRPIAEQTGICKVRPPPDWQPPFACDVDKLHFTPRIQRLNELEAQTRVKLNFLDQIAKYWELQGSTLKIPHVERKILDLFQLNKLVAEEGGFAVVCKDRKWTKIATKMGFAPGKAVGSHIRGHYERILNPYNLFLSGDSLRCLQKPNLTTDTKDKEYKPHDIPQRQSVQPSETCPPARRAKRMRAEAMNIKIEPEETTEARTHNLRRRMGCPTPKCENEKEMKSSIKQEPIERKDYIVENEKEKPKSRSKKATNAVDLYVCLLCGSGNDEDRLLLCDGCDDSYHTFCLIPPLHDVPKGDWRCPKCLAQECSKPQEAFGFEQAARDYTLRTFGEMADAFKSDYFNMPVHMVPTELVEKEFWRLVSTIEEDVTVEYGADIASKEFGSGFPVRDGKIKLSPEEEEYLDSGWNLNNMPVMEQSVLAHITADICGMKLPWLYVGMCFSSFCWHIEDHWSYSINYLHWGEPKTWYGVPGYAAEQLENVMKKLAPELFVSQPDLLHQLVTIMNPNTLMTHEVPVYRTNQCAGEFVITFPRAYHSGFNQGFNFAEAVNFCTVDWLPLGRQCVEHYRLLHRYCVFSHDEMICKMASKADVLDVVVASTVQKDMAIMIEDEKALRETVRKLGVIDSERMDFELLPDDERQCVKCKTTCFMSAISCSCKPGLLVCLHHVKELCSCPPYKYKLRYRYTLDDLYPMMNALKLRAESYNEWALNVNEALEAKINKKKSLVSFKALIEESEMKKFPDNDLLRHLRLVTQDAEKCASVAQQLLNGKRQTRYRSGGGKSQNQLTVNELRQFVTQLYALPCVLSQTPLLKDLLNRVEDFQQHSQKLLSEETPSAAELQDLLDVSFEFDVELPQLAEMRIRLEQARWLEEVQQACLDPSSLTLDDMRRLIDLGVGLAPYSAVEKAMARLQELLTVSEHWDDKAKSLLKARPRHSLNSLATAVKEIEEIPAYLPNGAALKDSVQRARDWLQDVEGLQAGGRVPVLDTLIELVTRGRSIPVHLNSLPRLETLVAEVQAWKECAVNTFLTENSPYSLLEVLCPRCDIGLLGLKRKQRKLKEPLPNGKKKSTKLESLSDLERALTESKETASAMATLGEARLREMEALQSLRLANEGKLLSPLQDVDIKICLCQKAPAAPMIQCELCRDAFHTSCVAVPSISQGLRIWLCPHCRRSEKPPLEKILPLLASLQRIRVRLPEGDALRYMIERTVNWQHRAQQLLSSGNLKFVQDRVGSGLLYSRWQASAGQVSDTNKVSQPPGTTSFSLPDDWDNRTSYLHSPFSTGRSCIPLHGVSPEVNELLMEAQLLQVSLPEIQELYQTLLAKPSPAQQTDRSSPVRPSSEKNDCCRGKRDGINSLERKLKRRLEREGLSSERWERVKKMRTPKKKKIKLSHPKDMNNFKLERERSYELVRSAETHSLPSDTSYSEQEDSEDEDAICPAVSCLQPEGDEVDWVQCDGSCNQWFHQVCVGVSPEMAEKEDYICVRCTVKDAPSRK

SMILES | Potency | activity change, negative = inhibition
Cc1noc(C)c1-c1cc2c(c(-c3cccc(CO)c3)c1)C(=O)N(C)C2=O | inactive | –
Cc1ccc(C(O)c2cc3c(cc2NC(=O)c2ccc(F)cc2)OCCO3)cc1 (stereo not drawn) | inactive | –
COc1ccc(OC)c(CCNC(=O)C(=O)Nc2ccc3nc4n(c(=O)c3c2)CCCCC4)c1 | inconclusive: 39.8 µM [inhibitor, single point] | –
CCS(=O)(=O)c1nc2ccccc2n1CC(=O)Nc1ccccc1C(=O)OC | – | inconclusive: -35.1% [inhibitor] [at 11.5 µM]
CCOc1ccc(C(=O)Nc2sc(C)c(CC)c2C#N)cc1 | inconclusive: 1.78 µM [inhibitor, partial curve, poor fit] | –
O=C(c1cc(=O)c2ccccc2o1)N1CCCC1Cc1ccccc1 (stereo not drawn) | inactive | –
Oc1c(C(c2ccc(Br)cc2)N2CCOCC2)sc2nc(-c3ccco3)nn12 (stereo not drawn) | inconclusive: 8.91 µM [inhibitor, partial curve, poor fit] | –
Cc1ccc(CN(C)c2cc(C(=O)N3CCOCC3)c3ccccc3n2)cc1 | inconclusive: 25.1 µM [inhibitor, partial curve, poor fit] | –
CCC(=O)N1Cc2ccccc2CC2(CCCCN2CC2CCNC2)C1 (stereo not drawn) | inconclusive: 56.2 µM [inhibitor, partial curve, poor fit] | –
COc1ccc(C(=O)N2CCCC(c3nc(-c4ccccc4)no3)CCNC(=O)CC2)c(OC)n1 (stereo not drawn) | inactive | –
COc1ccc([C@@H]2c3c(C)nn(-c4ccccc4)c3NC(=O)[C@H]2NC(=O)c2ccc(Cl)cc2)cc1 | inactive | –
O=C(Nc1ccccc1Cl)N1CCc2nc3cc[nH]n3c(=O)c2C1 | inconclusive: 39.8 µM [inhibitor, single point] | –
CCOC(=O)c1ccc(Oc2coc3cc(O)ccc3c2=O)cc1 | inconclusive: 25.1 µM [inhibitor, partial curve, poor fit] | –
CCCc1noc(-c2cn(C3CCN(C(=O)c4ccc(C)c(F)c4)CC3)nn2)n1 | inactive | –
Fc1ccc(C(Nc2ccc(Cl)c(C(F)(F)F)c2)c2nnc(-c3ccccc3)o2)cc1 (stereo not drawn) | inconclusive: 15.8 µM [inhibitor, partial curve, poor fit] | –
O=C(c1cscn1)N1CCCC2(COc3ccccc3[S+](=O)([O-])N2)C1 (stereo not drawn) | inactive | –
CCCCn1cnc2c1c(=O)n(CC(=O)Nc1ccccc1C(C)C)c(=O)n2CCC | inconclusive: 17.8 µM [inhibitor, single point] | –
CCc1c(C)cc(C(=O)N[C@H]2CCOC[C@H]2C2CCOCC2)c(=O)n1C | active: 25.1 µM | –
COc1ccc(-c2cc(C(F)(F)F)nc(NCc3ccccc3)n2)cc1 | inconclusive: 31.6 µM [inhibitor, partial curve, poor fit] | –
CCCCCCCCOC(=O)/C(C#N)=C/c1c[nH]c2ccccc12 | inactive | –
CCCc1noc(CN2CCC(c3nc4ccccc4s3)CC2)n1 | inactive | –
CCOc1ccccc1N1C(=O)CC(Sc2nc(C)c3cc(OC)ccc3n2)C1=O (stereo not drawn) | inconclusive: 14.1 µM [inhibitor, partial curve, poor fit] | –

SMILES | Potency | activity change, negative = inhibition
Cc1ccccc1NC(=O)Cn1c(=O)n(-c2ccc(CC(=O)NCC3CCCO3)cc2)c(=O)c2ccccc21 (stereo not drawn) | inconclusive: 15.8 µM [inhibitor, partial curve, poor fit] | –
COc1ccc(NC(=O)c2cc(=O)c3ccc(C)cc3o2)c(OC)c1 | inactive | –
O=C(NCc1ccccc1)c1ccc(C2Nc3ccccc3S(=O)(=O)N2)cc1 (stereo not drawn) | inconclusive: 25.1 µM [inhibitor, single point] | –
C=CC[C@H]1CC(Cc2ccccc2)=C[C@H](CC=C)N1 | inconclusive: 3.98 µM [inhibitor, full curve, poor fit] | –
CN1CCOc2c(C(=O)NCc3cnn(C)c3)cc(-c3cccnc3)cc21 | inactive | –
COc1ccc2cc3cc(C(=O)NCCc4ccccc4)sc3nc2c1Cl | inconclusive: 17.8 µM [inhibitor, partial curve, poor fit] | –
CCc1ccccc1N(C)S(=O)(=O)c1ccc2[nH]cc(C(=O)NCCOC)c(=O)c2c1 | inconclusive: 39.8 µM [inhibitor, single point] | –
O=[N+]([O-])c1ccccc1S(=O)(=O)Nc1ccccc1 | inactive | –
Cc1ccc(C2(CCN3CCN(C)CC3)CCOC(C)(C)C2)cc1 (stereo not drawn) | inconclusive: 22.4 µM [inhibitor, partial curve, poor fit] | –
CCN(CC(C)C#N)C(=O)C1CCN(C(=O)c2ccc(Cl)cc2)CC1 (stereo not drawn) | inactive | –
COc1ccccc1-n1cnnc1SCC(=O)NC(C)c1ccc(-c2ccccc2)cc1 (stereo not drawn) | inactive | –
Nc1nccnc1C(=O)NCc1ccnc(-n2cccn2)c1 | inconclusive: 22.4 µM [inhibitor, partial curve, poor fit] | –
Cc1ccc2nc(CO[C@H]3CN(c4ccc(C#N)cn4)C[C@H]3F)[nH]c2c1 | active: 17.8 µM | –
COc1cc(/C=C(\C#N)c2nc3ccc(C)cc3[nH]2)ccc1OC(C)C | inconclusive: 25.1 µM [inhibitor, single point] | –
CC(=O)NC1(C)CCN(Cc2ccccc2-c2cccc(C(C)=O)c2)C1 (stereo not drawn) | inconclusive: 44.7 µM [inhibitor, partial curve, poor fit] | –
COc1ccc(NC(=O)Cn2cccc2-c2nc(-c3ccccc3)no2)cc1 | inactive | –
COC(=O)c1ccc(Cl)cc1NC(=O)N1CCC(CN2CCCC2)CC1 | inconclusive: 28.2 µM [inhibitor, partial curve, poor fit] | –
Cc1cc([N+](=O)[O-])ccc1N=Cc1ccc(C#Cc2ccccc2)cc1 | inconclusive: 25.1 µM [inhibitor, partial curve, poor fit] | –
COc1ccc(N2CC(C(=O)NCc3cccc(OC)c3)NC2=O)cc1 (stereo not drawn) | inactive | –
Cc1cn2c(=O)cc(COC(=O)c3cccc(NC(=O)COc4ccc(Cl)cc4)c3)nc2s1 | inconclusive: 15.8 µM [inhibitor, partial curve, poor fit] | –
COC(=O)c1c(NC(=O)COc2ccccc2Cl)sc2c1CCC(C(C)(C)C)C2 (stereo not drawn) | – | inconclusive: -32.7% [inhibitor]
